Laboratory results from US11891445 (ABL BIO, dated 2024).

T1: recombinant human B7-H3 protein (bought antigen used for ELISA analysis and T cell activity analysis) (human, UniProt Q5ZPR3 29-461)
T1 construct: range 1-461; also called extracellular domain (ECD) of B7-H3 protein; not shown: C-terminal histidine tag or Fc region of human IgG1 (Sino Biological 11188-H02H)
T1 sequence (looked up): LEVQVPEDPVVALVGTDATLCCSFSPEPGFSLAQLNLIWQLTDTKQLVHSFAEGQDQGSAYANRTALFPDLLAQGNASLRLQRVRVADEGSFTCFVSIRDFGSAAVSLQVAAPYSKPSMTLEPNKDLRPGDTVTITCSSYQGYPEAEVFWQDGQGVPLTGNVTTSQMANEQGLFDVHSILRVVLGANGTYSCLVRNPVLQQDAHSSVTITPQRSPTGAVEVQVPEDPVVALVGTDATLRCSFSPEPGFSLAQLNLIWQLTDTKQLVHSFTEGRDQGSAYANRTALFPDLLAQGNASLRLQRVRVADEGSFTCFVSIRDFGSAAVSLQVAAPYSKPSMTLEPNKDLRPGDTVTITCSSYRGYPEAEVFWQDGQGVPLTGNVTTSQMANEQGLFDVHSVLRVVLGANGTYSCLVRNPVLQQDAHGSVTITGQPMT

T2: human B7-H3 expressed on a cell surface (human cancer cell lines) (human, UniProt Q5ZPR3 29-534)
T2 construct: whole, on cells; also called cell surface expression B7-H3 antigen
T2 sequence (looked up): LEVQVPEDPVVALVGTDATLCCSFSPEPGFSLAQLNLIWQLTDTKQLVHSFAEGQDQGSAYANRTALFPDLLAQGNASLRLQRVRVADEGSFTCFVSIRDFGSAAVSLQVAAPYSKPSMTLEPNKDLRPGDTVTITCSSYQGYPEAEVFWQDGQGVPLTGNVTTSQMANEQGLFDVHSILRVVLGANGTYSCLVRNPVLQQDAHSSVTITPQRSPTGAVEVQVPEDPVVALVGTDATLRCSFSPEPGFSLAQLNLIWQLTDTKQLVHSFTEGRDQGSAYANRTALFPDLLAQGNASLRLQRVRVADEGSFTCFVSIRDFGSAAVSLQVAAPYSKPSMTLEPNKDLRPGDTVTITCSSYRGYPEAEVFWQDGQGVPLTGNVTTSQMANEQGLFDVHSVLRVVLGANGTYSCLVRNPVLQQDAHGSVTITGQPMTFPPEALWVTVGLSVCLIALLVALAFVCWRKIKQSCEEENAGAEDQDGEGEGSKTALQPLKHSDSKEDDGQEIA

B1: anti-B7-H3 antibody D8G (full IgG form) (antibody)
heavy: EVQLLESGGGLVQPGGSLRLSCAASGFTFSSYSMSWVRQAPGKGLEWVSGIYSDGSNTYYADSVKGRFTISRDNSKNTLYLQMNSLRAEDTAVYYCAKMLHRFDYWGQGTLVTVSS[human IgG1 constant region not shown]
light: QSVLTQPPSASGTPGQRVTISCSGSSSNIGSNSVTWYQQLPGTAPKLLIYADSQRPSGVPDRFSGSKSGTSASLAISGLRSEDEADYYCGTWDSSLNAYVFGGGTKLTVLGQPKAAPSVTLFPPSSEELQANKATLVCLISDFYPGAVTVAWKADSSPVKAGVETTTPSKQSNNKYAASSYLSLTPEQWKSHRSYSCQVTHEGSTVEKTVAPAECS
B2: anti-B7-H3 antibody F6V (full IgG form) (antibody)
heavy: EVQLLESGGGLVQPGGSLRLSCAASGFTFSDYAMSWVRQAPGKGLEWVSGISPGGSNTYYADSVKGRFTISRDNSKNTLYLQMNSLRAEDTAVYYCAKDAWIARLLLFDYWGQGTLVTVSS[human IgG1 constant region not shown]
light: QSVLTQPPSASGTPGQRVTISCSGSSSNIGSNAVTWYQQLPGTAPKLLIYYNNKRPSGVPDRFSGSKSGTSASLAISGLRSEDEADYYCGTWDDSLSGYVFGGGTKLTVLGQPKAAPSVTLFPPSSEELQANKATLVCLISDFYPGAVTVAWKADSSPVKAGVETTTPSKQSNNKYAASSYLSLTPEQWKSHRSYSCQVTHEGSTVEKTVAPAECS
B3: anti-B7-H3 antibody B5 (full IgG form) (antibody)
heavy: EVQLLESGGGLVQPGGSLRLSCAASGFTFSDYAMSWVRQAPGKGLEWVSSISSGSGSIYYADSVKGRFTISRDNSKNTLYLQMNSLRAEDTAVYYCAKNLIPLDYWGQGTLVTVSS[human IgG1 constant region not shown]
light: QSVLTQPPSASGTPGQRVTISCSGSSSNIGSNAVSWYQQLPGTAPKLLIYYNSHRPSGVPDRFSGSKSGTSASLAISGLRSEDEADYYCGSWDASLNAYVFGGGTKLTVLGQPKAAPSVTLFPPSSEELQANKATLVCLISDFYPGAVTVAWKADSSPVKAGVETTTPSKQSNNKYAASSYLSLTPEQWKSHRSYSCQVTHEGSTVEKTVAPAECS
B4: anti-B7-H3 antibody C4I (full IgG form) (antibody)
heavy: EVQLLESGGGLVQPGGSLRLSCAASGFTFSGYYMSWVRQAPGKGLEWVSLISPSSGSIYYADSVKGRFTISRDNSKNTLYLQMNSLRAEDTAVYYCAKGLTKFDYWGQGTLVTVSS[human IgG1 constant region not shown]
light: QSVLTQPPSASGTPGQRVTISCTGSSSNIGSNDVSWYQQLPGTAPKLLIYANSHRPSGVPDRFSGSKSGTSASLAISGLRSEDEADYYCGSWDDSLSGYVFGGGTKLTVLGQPKAAPSVTLFPPSSEELQANKATLVCLISDFYPGAVTVAWKADSSPVKAGVETTTPSKQSNNKYAASSYLSLTPEQWKSHRSYSCQVTHEGSTVEKTVAPAECS
notes: also called C41
B5: anti-B7-H3 antibody 10F11 (full IgG form) (antibody)
heavy: EVQLLESGGGLVQPGGSLRLSCAASGFTFSSYGMSWVRQAPGKGLEWVSGIYSGGSSKYYADSVKGRFTISRDNSKNTLYLQMNSLRAEDTAVYYCAKNRLRFDYWGQGTLVTVSS[human IgG1 constant region not shown]
light: QSVLTQPPSASGTPGQRVTISCTGSSSNIGSNSVTWYQQLPGTAPKLLIYSDSHRPSGVPDRFSGSKSGTSASLAISGLRSEDEADYYCGTWDASLNAYVFGGGTKLTVLGQPKAAPSVTLFPPSSEELQANKATLVCLISDFYPGAVTVAWKADSSPVKAGVETTTPSKQSNNKYAASSYLSLTPEQWKSHRSYSCQVTHEGSTVEKTVAPAECS

How the values were obtained:
[1] = biological target: T1, recombinant human B7-H3 protein (bought …); assay: ELISA on plate-coated recombinant human B7-H3 (1 ug/ml), HRP anti-human IgG F(ab')2 detection
Experimental: Specifically, after diluting the recombinant human B7-H3 protein at a concentration of 1 µg/ml and putting it into a 96-well plate (Nunc-Immuno Plates, NUNC) in 100 µl per well, it was reacted at 4° C. for 16 hrs for coating. The recombinant human B7-H3 protein used in Example 1 was used here.
Then, after removing the protein and washing it with PBST, a PBS buffer comprising 1% BSA (bovine serum albumin) was put at 200 µl per well and it was reacted at 37° C. for 2 hrs to block non-specific binding. Then, after diluting anti-B7-H3 antibodies prepared in Example 2 at a concentration of 10 µg/ml on the 96-well plate, 100 µl was put in each well and it was reacted at 37° C. for 1 hr. Then after it was washed with PBST. In order to detect antibodies bound to human B7-H3, HRP-connected anti-human IgG F(ab')2 antibody (Goat anti-Human IgG F(ab')2 Cross-Adsorbed Secondary Antibody, HRP, Pierce, 31414) was diluted by 1:10,000 in PBS comprising 1% bovine serum albumin (BSA), and 100 µl was put per well and it was reacted at 37° C. for about 1 hr. After washing it with PBST again, TMB (Tetramethylbenzidine, Sigma, T0440) 100 µl was put to develop color. After reacting it at RT for 5-10 min, 50 µl of 1N H_2SO_4 was put to finish the reaction, and the absorbance at 450 nm and 650 nm was measured by using a micro plate reader (molecular device).

[2] = biological target: T2, human B7-H3 expressed on a cell surface …; assay: flow cytometry, HT29 cells, antibody 10 ug/ml
Excerpt: (§1) Using various kinds of cancer cells A2780 (human ovarian cancer, ECACC, 93112519), SKOV-3 (human ovarian adenocarcinoma, ATCC® HTB-77™) OVCAR-3 (human ovarian adenocarcinoma, ATCC® HTB-161™), HCT116 (colon cancer cell, ThermoFIshcer Sci), HT29 (olorectal adenocarcinoma, ATCC® HTB-38™), DLD-1 (colorectal adenocarcinoma cell lines, ATCC® CCL-221™), Calu-6 (Non-small-cell lung carcinoma, ATCC® HTB-56™), HCC1954 (TNM stage IIA, grade 3, ductal carcinoma, ATCC® CRL-2338™), HCC1187 (TNM stage IIA, ATCC® CLC-2322™), renal cancer cell line 786-0 (renal cell adenocarcinoma, ATCC® CRL-1932™), A498 (kidney carcinoma, ATCC® HTB-44™), Panc-1 (pancreas epithelioid carcinoma, TCC CRL-1469™), NCI-N87 (gastric carcinoma, TCC CRL-5822™), HeLa (cervix adenocarcinoma, ATCC® CCL-2™), JeKo-1 (Lymphoma, ATCC® CRL-3006™) and FACSCalibur (BD Biosciences) device, the degree of binding of anti-B7-H3 antibody to B7-H3 was measured as follows.
(§2) After dissociating each cell line and washing it with PBS buffer, the number of cells was counted and adjusted to 2×10^5 cells/200 µl PBS, and then was treated with 10 µg/ml of B7-H3 monoclonal antibodies prepared in Example 2. Reaction was allowed at 4° C. for 1 hr. After washing the reacted cells in PBS, the FITC-labeled constant region (Fc)-specific antibody (Goat anti-human IgG FITC conjugate, Fc specific, Sigma, F9512, concentration: 2.0 mg/ml)) was diluted by 1:500 and added 100 µl per well. and Reaction was allowed at 4° C. for 1 hr. After the reaction, cells were washed in PBS and analyzed using the FACSCalibur device. The negative control group was treated by the FITC-labeled constant region (Fc) specific antibody only. To compare expression degrees of B7-H3 among different cancer cell lines, the value for the peak shift in the experimental groups treated with the B7-H3 monoclonal antibody was divided by the value for the peak shift in the negative control group (MFI Ratio, Mean Fluorescence Intensity Ratio).

[3] = biological target: T2, human B7-H3 expressed on a cell surface …; assay: flow cytometry, A-498 cells, antibody 10 ug/ml
Excerpt: as §1, §2

[4] = biological target: T2, human B7-H3 expressed on a cell surface …; assay: flow cytometry, HCC1187 cells, antibody 10 ug/ml
Excerpt: as §1, §2

Binder	EC50 (read off the curve) [1] [nM]	MFI Ratio [2] [ratio]	MFI Ratio [3] [ratio]	MFI Ratio [4] [ratio]
B1	~0.2	11.9	25	13.3
B2	~0.1	15.9	37	18.4
B3	~0.1	17.6	35	21.8
B4	~0.2	12.7	26	11.2
B5	~0.2	18.7	35	22
